This is one part of the list. Sequences were assembled here from the parent chain. Values near 0.05 are background.
B1: TEV protease; numbered along this chain (parent)
chain: MGESLFKGPRDYNPISSSICHLTNESDGHTTSLYGIGFGPFIITNKHLFRRNNGTLVVQSLHGVFKVKDTTTLQQHLVDGRDMIIIRMPKDFPPFPQKLKFREPQREERICLVTTNFQTKSMSSMVSDTSCTFPSGDGIFWKHWIQTKDGQCGSPLVSTRDGFIVGIHSASNFTNTNNYFTSVPKNFMELLTNQEAQQWVSGWRLNADSVLWGGHKVFMVKPEEPFQPVKEATQL

Variants of: B1
Test: raw area under fraction-flipped curve 0-4 h after induction (AUC4h, not background-subtracted), DNA-recorder readout of cleavage of the substrate (dimensionless); higher = more cleavage of the substrate by the protease variant
Settings: temperature: 34 °C; time window: 0-4 h after rhamnose induction
Method: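 In vivo DNA recorder in E. coli TOP10(DE3) ΔrhaA at 34 °C. Each TEVp single-site mutant (parent TEVp 0) is paired with a single-site variant of the 7-mer TEVs (canonical ENLYFQ|S). The substrate sits between flexible linkers in a Bxb1-sfGFP-TEVs-SsrA fusion, so cleavage stabilises Bxb1 and speeds flipping of a recombination array, read by NGS. The value is the raw area under the fraction-flipped curve over 0-4 h after rhamnose induction (AUC4h), with ≥20 reads per time point. It is not background-subtracted; inactive controls average about 0.047.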
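Further: Bxb1 expression induced with 0.2% (w/v) L-rhamnose at OD600 near 0.5, cultures sampled hourly, flipped fraction per protease–substrate barcode pair counted by paired-end Illumina sequencing.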

MGESLFKGPRDYNPISSSICHLTNESDGHTTSLYGIGFGPFIITNKHLFRRNNGTLVVQSLHGVFKKKDTTTLQQHLVDGRDMIIIRMPKDFPPFPQKLKFREPQREERICLVTTNFQTKSMSSMVSDTSCTFPSGDGIFWKHWIQTKDGQCGSPLVSTRDGFIVGIHSASNFTNTNNYFTSVPKNFMELLTNQEAQQWVSGWRLNADSVLWGGHKVFMVKPEEPFQPVKEATQL [V67K]
area with substrate ENLAFQS: 0.0727
area with substrate ENLEFQS: 0.0901
area with substrate ENLFFQS: 0.07
area with substrate ENLHFQS: 0.0673
area with substrate ENLIFQS: 0.0707
area with substrate ENLLFQS: 0.0535
area with substrate ENLRFQS: 0.0517
area with substrate ENLSFQS: 0.0606
area with substrate ENLVFQS: 0.0657

MGESLFKGPRDYNPISSSICHLTNESDGHTTSLYGIGFGPFIITNKHLFRRNNGTLVVQSLHGVFKPKDTTTLQQHLVDGRDMIIIRMPKDFPPFPQKLKFREPQREERICLVTTNFQTKSMSSMVSDTSCTFPSGDGIFWKHWIQTKDGQCGSPLVSTRDGFIVGIHSASNFTNTNNYFTSVPKNFMELLTNQEAQQWVSGWRLNADSVLWGGHKVFMVKPEEPFQPVKEATQL [V67P]
area with substrate ENLAFQS: 0.0485
area with substrate ENLCFQS: 0.0449
area with substrate ENLDFQS: 0.0371
area with substrate ENLEFQS: 0.0308
area with substrate ENLFFQS: 0.0288
area with substrate ENLHFQS: 0.0256
area with substrate ENLKFQS: 0.0571
area with substrate ENLLFQS: 0.0469
area with substrate ENLPFQS: 0.0615
area with substrate ENLRFQS: 0.047
area with substrate ENLSFQS: 0.0746

MGESLFKGPRDYNPISSSICHLTNESDGHTTSLYGIGFGPFIITNKHLFRRNNGTLVVQSLHGVFKYKDTTTLQQHLVDGRDMIIIRMPKDFPPFPQKLKFREPQREERICLVTTNFQTKSMSSMVSDTSCTFPSGDGIFWKHWIQTKDGQCGSPLVSTRDGFIVGIHSASNFTNTNNYFTSVPKNFMELLTNQEAQQWVSGWRLNADSVLWGGHKVFMVKPEEPFQPVKEATQL [V67Y]
area with substrate ENLAFQS: 0.0569
area with substrate ENLCFQS: 0.0706
area with substrate ENLDFQS: 0.061
area with substrate ENLEFQS: 0.0896
area with substrate ENLFFQS: 0.0703
area with substrate ENLHFQS: 0.0701
area with substrate ENLIFQS: 0.0805
area with substrate ENLLFQS: 0.0663
area with substrate ENLMFQS: 0.0767
area with substrate ENLNFQS: 0.0598

MGESLFKGPRDYNPISSSICHLTNESDGHTTSLYGIGFGPFIITNKHLFRRNNGTLVVQSLHGVFKVHDTTTLQQHLVDGRDMIIIRMPKDFPPFPQKLKFREPQREERICLVTTNFQTKSMSSMVSDTSCTFPSGDGIFWKHWIQTKDGQCGSPLVSTRDGFIVGIHSASNFTNTNNYFTSVPKNFMELLTNQEAQQWVSGWRLNADSVLWGGHKVFMVKPEEPFQPVKEATQL [K68H]
area with substrate ENLAFQS: 0.0636
area with substrate ENLCFQS: 0.084
area with substrate ENLEFQS: 0.0368
area with substrate ENLFFQS: 0.0829
area with substrate ENLGFQS: 0.0571
area with substrate ENLHFQS: 0.0543
area with substrate ENLIFQS: 0.112
area with substrate ENLKFQS: 0.0626
area with substrate ENLLFQS: 0.0671
area with substrate ENLMFQS: 0.082
area with substrate ENLNFQS: 0.0575
area with substrate ENLPFQS: 0.0627
area with substrate ENLSFQS: 0.0733
area with substrate ENLTFQS: 0.0606
area with substrate ENLWFQS: 0.0759

MGESLFKGPRDYNPISSSICHLTNESDGHTTSLYGIGFGPFIITNKHLFRRNNGTLVVQSLHGVFKVWDTTTLQQHLVDGRDMIIIRMPKDFPPFPQKLKFREPQREERICLVTTNFQTKSMSSMVSDTSCTFPSGDGIFWKHWIQTKDGQCGSPLVSTRDGFIVGIHSASNFTNTNNYFTSVPKNFMELLTNQEAQQWVSGWRLNADSVLWGGHKVFMVKPEEPFQPVKEATQL [K68W]
area with substrate ENLAFQS: 0.0599
area with substrate ENLDFQS: 0.0568
area with substrate ENLEFQS: 0.0523
area with substrate ENLFFQS: 0.0818
area with substrate ENLGFQS: 0.0657
area with substrate ENLHFQS: 0.0184
area with substrate ENLLFQS: 0.0891
area with substrate ENLPFQS: 0.0458
area with substrate ENLQFQS: 0.064
area with substrate ENLRFQS: 0.0702
area with substrate ENLSFQS: 0.0549
area with substrate ENLWFQS: 0.0883

Source: the supplement of paper PMC12217912
